# Results reported in PMC4336329 (PLoS ONE, 2015).
# Out of some 310,000 compounds screened, about 2,200 (0.71%) showed an effect of 50% or more. The effect is printed as a negative number. The list shows a part of the results.
# Target: human ether-à-go-go-related gene (hERG) potassium channel (human, UniProt Q12809)
# Test: primary screen, population patch clamp on CHO cells stably expressing hERG
# Chain of human ether-à-go-go-related gene (hERG) potassium channel (Q12809 whole entry, looked up): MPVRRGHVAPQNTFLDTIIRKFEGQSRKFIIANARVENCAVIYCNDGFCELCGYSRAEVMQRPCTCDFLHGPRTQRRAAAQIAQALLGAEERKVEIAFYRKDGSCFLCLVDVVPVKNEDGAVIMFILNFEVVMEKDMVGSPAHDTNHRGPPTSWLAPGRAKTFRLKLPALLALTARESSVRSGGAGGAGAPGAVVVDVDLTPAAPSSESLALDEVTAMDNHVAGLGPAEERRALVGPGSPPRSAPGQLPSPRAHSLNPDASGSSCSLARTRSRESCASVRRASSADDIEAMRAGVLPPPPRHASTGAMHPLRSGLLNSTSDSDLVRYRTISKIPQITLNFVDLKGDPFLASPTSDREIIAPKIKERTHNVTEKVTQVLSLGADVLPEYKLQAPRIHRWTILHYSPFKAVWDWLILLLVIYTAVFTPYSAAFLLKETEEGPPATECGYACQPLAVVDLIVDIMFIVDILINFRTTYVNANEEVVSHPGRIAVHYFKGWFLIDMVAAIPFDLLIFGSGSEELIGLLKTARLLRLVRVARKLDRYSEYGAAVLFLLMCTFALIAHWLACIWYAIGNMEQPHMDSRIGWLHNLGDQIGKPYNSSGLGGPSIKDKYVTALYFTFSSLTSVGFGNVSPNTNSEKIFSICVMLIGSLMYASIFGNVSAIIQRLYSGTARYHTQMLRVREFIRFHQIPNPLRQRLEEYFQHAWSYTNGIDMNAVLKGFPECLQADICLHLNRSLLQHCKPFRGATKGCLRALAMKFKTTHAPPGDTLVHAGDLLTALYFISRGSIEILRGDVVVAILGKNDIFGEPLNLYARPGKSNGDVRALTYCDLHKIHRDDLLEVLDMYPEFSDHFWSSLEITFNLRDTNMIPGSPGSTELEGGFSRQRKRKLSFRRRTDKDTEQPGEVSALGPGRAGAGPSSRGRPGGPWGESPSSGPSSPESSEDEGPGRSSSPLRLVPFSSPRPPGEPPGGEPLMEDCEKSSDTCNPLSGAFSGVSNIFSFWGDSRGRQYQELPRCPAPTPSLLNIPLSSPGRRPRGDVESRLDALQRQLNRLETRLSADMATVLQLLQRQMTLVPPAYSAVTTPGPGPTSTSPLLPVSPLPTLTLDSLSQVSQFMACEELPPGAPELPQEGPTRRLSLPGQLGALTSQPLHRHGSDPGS
row,SMILES,"hERG current change (%, negative = inhibition) at 1uM [%]"
1,COc1cc(C(=O)Nc2ccccc2SCc2cc(=O)n3nc(C)sc3n2)cc(OC)c1OC,13.4
2,O=c1c(Cl)cc(Cl)nn1-c1ccccc1,-2.11
3,O=C(Cc1coc2ccc3ccccc3c12)Nc1nnc(C2CC2)s1,10.6
4,COc1ccc(CCNC(=O)C(=O)NCC2OCCN2S(=O)(=O)c2ccccc2)cc1 (stereo not shown),8.53
5,COc1ccccc1CNC(=O)CN1CCN(c2ccc(C(C)=O)cc2)CC1,10.6
6,CC(C)c1ccc(N(CC(=O)NC2CCCCC2)C(=O)CNC(=O)c2ccco2)cc1,2.41
7,O=C(CN1CCCCCC1)Nc1ccc(Br)cc1[N+](=O)[O-],15.4
8,O=C(c1cc(-c2ccco2)nc2ccccc12)N1CCCC(C(F)(F)F)C1 (stereo not shown),5.58
9,Cc1cccc(NC(=O)COc2cccc3c2CCN(C)C3=O)c1C,-4.87
10,CSCCC(NS(=O)(=O)c1c(Cl)cccc1Cl)C(=O)O (stereo not shown),12.8
11,NC(=S)Nn1c(-c2ccccc2)nc2ccccc2c1=O,11
12,O=S(=O)(Nc1ccc(N2CCOCC2)cc1)c1cc(Cl)ccc1Cl,7.82
13,O=C(O)c1cnc(-c2ccccc2)nc1Sc1ccccc1,17.9
14,CC(C)CN(C(=O)CCCc1nc2ccccc2c(=O)[nH]1)c1c(N)n(Cc2ccccc2)c(=O)[nH]c1=O,19.1
15,Cc1ccccc1CSCc1nc2ccccc2[nH]1,9.14
16,O=C(c1ccc(C(F)(F)F)cc1)C1CCCN(C(=O)CCN2CCCO2)C1 (stereo not shown),3.83
17,Cc1ccc(C)c(N2CCN(C(c3ccc(N(C)C)cc3)c3nnnn3C(C)(C)C)CC2)c1 (stereo not shown),7.25
18,CC(=O)Nc1ccc(S(=O)(=O)NCC(=O)OCC(=O)NC(=O)c2cccn2C)cc1,-6.07
19,Cc1csc(=O)n1CC(=O)OCC(=O)Nc1cc(S(=O)(=O)N2CCOCC2)ccc1Cl,8.22
20,Cc1ccc2oc(=O)cc(CN3CCCCC3)c2c1,12.5
21,COc1ccc(OCCNC(=O)c2ccccc2Cl)cc1,10.8
22,O=C(Nc1ccc(C(=O)N2CCCCC2)cc1)c1ccccc1Cl,-6.44

row,SMILES,"hERG current change (%, negative = inhibition) at 1uM [%]"
1,CCOC(=O)CNC(=O)C1(/C=C/c2ccccc2)CC(=O)N1c1ccc(OC)cc1 (stereo not shown),12.3
2,COc1ccc(CCN2CC(C(=O)Nc3nnc(Cc4ccccc4)s3)CC2=O)cc1OC (stereo not shown),2.87
3,CCN1C(=O)CS/C1=C(\C#N)S(=O)(=O)c1ccccc1,9.68
4,Cc1ccc(-c2cc(-c3ccc(Cl)cc3)c(C#N)c(N)n2)o1,1.06
5,CN(C)S(=O)(=O)c1ccc(NC(=O)C2CC(=O)N(Cc3ccccc3)C2)cc1 (stereo not shown),14.7
6,O=C(CCCN1C(=O)S/C(=C/C=C/c2ccccc2)C1=O)Nc1ccc(C(=O)O)cc1,15
7,CC(CNC(=O)c1cc(COc2c(F)cccc2F)on1)Oc1cccnc1 (stereo not shown),7.88
8,Cc1nc2sc(C(c3cccs3)N3CCN(C(=O)c4ccco4)CC3)c(O)n2n1 (stereo not shown),12.7
9,CO/N=C(\c1nonc1N)N1CCN(c2ccc([N+](=O)[O-])cc2Cl)CC1,13.9
10,CC(=O)N=c1c(C#N)cc2c(=O)n3cccc(C)c3nc2n1CCCOC(C)C,-13.3
11,CCOC(=O)N1CCN(S(=O)(=O)c2cc(C)c(C)cc2C)CC1,9.08
12,COC(=O)c1ccc(NC(=O)CSc2nn3c(=O)c(C)nnc3s2)cc1,12.4
13,CCCCn1c(N)c(N(CC)C(=O)c2ccccc2F)c(=O)[nH]c1=O,19.7
14,Cc1ccccc1Cn1c2ccccc2c2cnn(CC(=O)NCc3ccco3)c(=O)c21,11
15,CC(=O)OC[C@H]1O[C@H](C/C=N/O[C@@H](C)c2cn([C@H](CO)Cc3ccccc3)nn2)C=C[C@@H]1OC(C)=O,-0.583
16,COc1ccc(Oc2ccc(N/C=C3\CCCC3=O)cc2)cc1,6.71
17,Cc1c(Cl)c([N+](=O)[O-])nn1CCCC(=O)Nc1cccc(O)c1,3.8
18,N#Cc1c(Nc2ccccc2)c(/C=N/NCCO)c[nH]c1=O,12.4
19,COc1ccc(O[C@H]2C=C[C@@H](c3ccccc3)O[C@@H]2COC(=O)CC/C(C)=N/OC[C@@H](O)COCc2ccco2)cc1,6.31
20,Cc1ccc(NC(=O)C2CCN(c3cnccn3)CC2)cc1,21.4
21,Cc1cccc(N2CCN(C(C)C(=O)N3CCc4ccccc43)CC2)c1C (stereo not shown),19.4
22,CC1CCc2sc(C(=O)NN)cc2C1 (stereo not shown),20.4

row,SMILES,"hERG current change (%, negative = inhibition) at 1uM [%]"
1,CCCCC(=O)Nc1ccc(NC(=O)c2ccccc2OC)cn1,8.11
2,COc1cc([N+](=O)[O-])ccc1NC(=O)COC(=O)CCOc1ccc(C)cc1,6.35
3,CC(=O)C1[C@H](N(C)C)CC2C3CC=C4CC(O)CC[C@]4(C)C3CC[C@@]21C (stereo partly shown),15.7
4,COC(=O)/C=C1\SC(=NC(=O)c2cccc([N+](=O)[O-])c2)NC1=O,13.1
5,CC(=O)c1ccc(S(=O)(=O)Nc2cccc(-c3ccc4nncn4n3)c2)cc1,7.25
6,O=C(NCCc1ccccn1)c1cc2ccccc2o1,17
7,Cc1ccc(NC(=O)C2CCC(CNc3c(N4CCC(C)CC4)c(=O)c3=O)CC2)cc1F (stereo not shown),10.6
8,O=C(Nc1ccccc1)c1cc2ccccc2c(=O)s1,16.5
9,O=C(Nc1ccc(S(=O)(=O)Nc2ncccn2)cc1)c1ccccc1Br,5.81
10,Clc1ccc(-n2nnnc2CN2CCCCC2)cc1Cl,8.56
11,CC(=O)C1=C(O)C(=O)N(Cc2ccccc2)C1c1ccc(Br)cc1 (stereo not shown),17.2
12,COC1(C2=NCCN2)COc2ccccc2O1.Cl (stereo not shown),14.5
13,COc1ccc(S(=O)(=O)N(C)C)cc1NC(C)C(=O)Nc1cccc(C#N)c1 (stereo not shown),3.18
14,CC(=O)Nc1ccc(S(=O)(=O)NCCC(=O)OCCN2C(=O)c3ccccc3C2=O)cc1,13.6
15,Cc1ccc(NC(=O)CN(C)S(=O)(=O)c2cccc3nsnc23)cc1C,16.3
16,CCC(=O)Oc1ccc(C(=O)Nc2ccc3c(c2)OCO3)cc1,12.2
17,Cc1cc(N2CCN(C)CC2)nc2ccc(NC(=O)CCC3CCCC3)cc12,-3.69
18,O=C(COc1ccc(S(=O)(=O)N2CCCC2)cc1)N1CCCCC1,14.1
19,Cc1ccc2nc(-c3ccccn3)cc(C(=O)Nc3ccc4c(c3)OCO4)c2c1,7.67
20,Cc1cc(C)cc(NC(=O)CSc2nncn2-c2ccccn2)c1,9.46
21,CCOc1ccc(CCNC(=O)COC(=O)c2ccc(S(C)(=O)=O)cc2)cc1OCC,18.9
22,CCC1CCCCN1C(=O)CCn1c(=O)oc2ccccc21 (stereo not shown),-5.22

row,SMILES,"hERG current change (%, negative = inhibition) at 1uM [%]"
1,COCCNC(=O)c1ccc(Cl)c(S(=O)(=O)Nc2cccc(C)c2C)c1,11.3
2,CCC(C(=O)NCc1cccc(C)c1)n1nc(C)c2c(C)n(-c3ccccc3)nc2c1=O (stereo not shown),2.43
3,O=C(Oc1c(Cl)cc(Cl)c2cccnc12)N1CCOCC1,4.68
4,CSc1ccc(CN(C)C(=O)CSCC(=O)Nc2ccc(C)cc2)cc1,-25.2
5,CN(c1ccccc1)S(=O)(=O)c1ccc(C(=O)N2CCCC(C(F)(F)F)C2)cc1 (stereo not shown),6.95
6,Cc1ccnc(NC(=O)CCC(=O)c2cc(C)sc2C)c1,7.62
7,CCCn1c(SCC(=O)Nc2cc(C)on2)nc2c1c(=O)n(C)c(=O)n2C,-0.423
8,C/C(=N\NC(=O)C(NC(=O)c1ccccc1)C(C)C)c1ccccc1 (stereo not shown),16.7
9,COc1cc(OC)c2ccc(=O)oc2c1C(CC(=O)N1CCOCC1)c1ccc2c(c1)OCO2 (stereo not shown),8.57
10,COc1ccc(NC(=O)CCNS(=O)(=O)c2cccc3nonc23)cc1,8.35
11,O=C(Nc1sc2c(c1C(=O)NCC1CCCO1)CCCC2)c1cccs1 (stereo not shown),9.86
12,O=C(CO/N=C/c1c(Cl)cccc1Cl)NNC(=O)c1ccc(Cl)cc1,1.21
13,CCOc1ccc(CN(C(=O)c2oc3cc(C)ccc3c2C)C2CCS(=O)(=O)C2)cc1 (stereo not shown),-0.583
14,O=S(=O)(NCc1cc(-c2ccc(Cl)cc2)no1)c1ccc(Cl)cc1,15.5
15,O=C(COc1ncnc2ccccc12)Nc1ccc(Cl)c(S(=O)(=O)N2CCOCC2)c1,2.68
16,O=C(NC(=S)NCC1CCCO1)c1ccc(Cl)cc1 (stereo not shown),5.41
17,CN1C(=O)C(O)(C2COC(C)(C)CC2=O)c2ccccc21 (stereo not shown),8.05
18,Cc1ccc(-n2c(N)c(C#N)c(-c3ccccc3)c(C#N)c2=O)cc1,5.11
19,CCCOc1ccc(NC(=O)CC2C(=O)N(C)C(=S)N2Cc2cccs2)cc1 (stereo not shown),5.82
